From PubChem BioAssay AID248 (DTP/NCI, 2004) come the findings set out here.

Toxic doses and inconclusive results are not listed. Not every entry of the source has a single result; some have several. They are shown here; other results are not. There may be further records. The records of an entry are repeated measurements across runs, samples, wells, individuals or studies. What stands in brackets tells the records apart. Letters hold for one entry only.

The assay concerns L1210 leukemia ip in BDF1 mice, survival T/C. Description: NCI In Vivo Anticancer Drug Screen. Data for tumor model L1210 Leukemia (intraperitoneal) in B6D2F1 (BDF1) mice. Particulars: endpoint: mean survival time, higher = longer survival.

Consider `O=c1[nH]cnc2c1ncn2C1CCC(CO)C1` (stereo unspecified), for which the T/C (dose: 400.0 mg/kg/injection, schedule: Q01DX001 (ip), vehicle: carboxymethylcellulose (CMC)) is 87 % of control and 162 % of control. Regarding `COc1ccc(CC(N)C(=O)O)cc1N(CCCl)CCCl` (stereo unspecified), the T/C is 160 % of control [sample A] and 123 % of control [sample B] (dose: 0.6 mg/kg/injection, schedule: Q01DX009 (ip), vehicle: carboxymethylcellulose (CMC)); 93 % of control, 196 % of control [sample A] and 162 % of control [sample B] (dose: 12.5 mg/kg/injection, schedule: Q01DX001 (ip), vehicle: carboxymethylcellulose (CMC)). Consider `O=C(NC(=S)Nc1cc(C(F)(F)F)ccc1Cl)c1cccc([N+](=O)[O-])c1`, for which the T/C (dose: 100.0 mg/kg/injection, schedule: Q04DX002 (ip), vehicle: saline with Tween-80) is 111 % of control and 164 % of control. `CCCC/C=C/CO`: the T/C (dose: 100.0 mg/kg/injection, schedule: Q01DX009 (ip), vehicle: saline with Tween-80) was 103 % of control and 172 % of control. For `O=C(Nc1ccc(C2=NCCN2)cc1)c1ccc(C(=O)Nc2ccc(C3=NCCN3)cc2)cc1`, the T/C (dose: 15.0 mg/kg/injection, schedule: Q03DX Z (ip), vehicle: saline) was 121 % of control and 162 % of control.
